{"source": "the supplement of paper PMC11417369", "note": "The list shows a part of the results."}
{"tested_on": "PF3D7_0420300 AP2 domain 1 (GST-tagged)", "assay": "gcPBM binding intensity (ln(normalized median fluorescence intensity)); higher = stronger DNA binding", "procedure,_shortened": "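Probes on an Agilent 4 × 180k array were primer-extended, double-stranded and 36 bp long, taken from intergenic genomic regions, with negative controls added. GST-tagged P. falciparum DNA-binding domains from E. coli, about 25 μg on average, were applied to the array for 1 h in 1× PBS containing 1% milk, 0.2 mg/ml BSA, 0.5% salmon testes DNA and 0.03% Triton X-100. Binding intensity, obtained after Alexa488 anti-GST antibody detection and a 488 nm scan, is the highest Masliner-normalised natural-log median intensity across replicate spots of either probe orientation.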"}
{"sequence": "CTCTATATATTATTATGTACTAAATGTATGTATGTA [XGTACX_site7151]", "gcPBM binding intensity (ln)": 9.32}
{"sequence": "TAACACACTAAGAAAAGTACTGATTAATATAATTTT [XGTACX_site5536]", "gcPBM binding intensity (ln)": 9.34}
{"sequence": "ATGAATGAATAAAGAAGTACGGAAATATTAACAAAA [XGTACX_site4695]", "gcPBM binding intensity (ln)": 9.63}
{"sequence": "AAAACACAATTTATTACACACATATATTATATATTA [CACACA_site1420]", "gcPBM binding intensity (ln)": 9.49}
{"sequence": "ATAACATACATAACAACACACAATATTTATCTGTAT [CACACA_site4279]", "gcPBM binding intensity (ln)": 9.78}
{"sequence": "ATATTTAGAATGTTCCTACACACCAAATTTAAGTGG [CACACA_site2346]", "gcPBM binding intensity (ln)": 9.29}
{"sequence": "TTTATTTTACAAAAAAGTACAAGAAGAAATATCAAT [XGTACX_site7812]", "gcPBM binding intensity (ln)": 9.19}
{"sequence": "TATTAAAAGTAAAAAACACACATGGATAAATACATA [CACACA_site6048]", "gcPBM binding intensity (ln)": 9.73}
{"sequence": "AATGATATATTATAAACACACAAAGATGGATATATA [CACACA_site7349]", "gcPBM binding intensity (ln)": 9.63}
{"sequence": "TTATATATAAATGAAAGTACAAAACAGGAAAGAATA [XGTACX_site1076]", "gcPBM binding intensity (ln)": 9.78}
{"sequence": "ATATATAATATATGTGGTACGCAAAATATTATATTA [XGTACX_site4969]", "gcPBM binding intensity (ln)": 9.27}
{"sequence": "TTTATATTATAATATAATAATGATCTTAATTTTTTT [XGTACX_negctrl_site100]", "gcPBM binding intensity (ln)": 8.91}
{"sequence": "TCAATATACCAAAAATGTACAAAAAATAAACAATAT [XGTACX_site8251]", "gcPBM binding intensity (ln)": 9.61}
{"sequence": "GAACATTTCACATGGTGTACTCTCTTTTTCAAATAA [XGTACX_site1632]", "gcPBM binding intensity (ln)": 9.13}
{"sequence": "ATTAATCCAAATGAATGTACTTAATAATGTAATTAT [XGTACX_site8946]", "gcPBM binding intensity (ln)": 9.08}
{"sequence": "ATTTTATAATTTATATCACACACATATATATATAGT [CACACA_site7885]", "gcPBM binding intensity (ln)": 9.49}
{"sequence": "TGTTTATAAATATAAAAAAATATATATATATATTAT [GTGCAC_negctrl_site247]", "gcPBM binding intensity (ln)": 8.88}
{"sequence": "CAAAATTAATAAGTCACACACACATCTATAATATAT [CACACA_site6519]", "gcPBM binding intensity (ln)": 10}
{"sequence": "TTCTTTATTTTTTCTACACACATTAGATATTCAAAG [CACACA_site7624]", "gcPBM binding intensity (ln)": 9.68}
{"sequence": "TATATATATATATTCACACATAAGATGAATAAAGTG [CACACA_site4225]", "gcPBM binding intensity (ln)": 9.29}
{"sequence": "ACCATAACATGAATTACAGGAATTGAAAATGTTCCA [CACACA_negctrl_site649]", "gcPBM binding intensity (ln)": 9.09}
{"sequence": "GTATTATATATAAAAGTGCATATTTTTTTCCCTTAC", "gcPBM binding intensity (ln)": 9.15}
{"sequence": "GGTTACATTTTATTTTGTACATAAAAATTTTTATTT [XGTACX_site218]", "gcPBM binding intensity (ln)": 9.41}
{"sequence": "ATGAGTATACTAAGAACACACAAGTTACTTGGTGTT [CACACA_site4981]", "gcPBM binding intensity (ln)": 9.46}
{"sequence": "TTTTTTATTATTATGTGTACGAATATGTGCATATAA [XGTACX_site1364]", "gcPBM binding intensity (ln)": 9.13}
{"sequence": "TATAACAAGTAATGTTGTACATTATATTATGTAATA [XGTACX_site2769]", "gcPBM binding intensity (ln)": 9.06}
{"sequence": "TAAAAAAAAAAAATGTGTACATATTATATATATCTT [XGTACX_site2615]", "gcPBM binding intensity (ln)": 9.14}
{"sequence": "TTTTTTCTCTATATATGTACATATAAAAAATATATC [XGTACX_site6382]", "gcPBM binding intensity (ln)": 8.92}
{"sequence": "GTTACACAAACAAACACACACACACGCACGCACAAA [CACACA_site7191]", "gcPBM binding intensity (ln)": 10.1}
{"sequence": "CATATTATTTAAACATGTACTCACATATAAATATAA [XGTACX_site6096]", "gcPBM binding intensity (ln)": 9.11}
{"sequence": "AAATAAAGCACACCGACACACACATATATATATATA [CACACA_site8256]", "gcPBM binding intensity (ln)": 9.77}
{"sequence": "TATATATATGTATACACACATACAAATATGTAAAAA [CACACA_site3720]", "gcPBM binding intensity (ln)": 9.46}
{"sequence": "TTTCAATACTGAAACTGTACTTGTTTTACTTCTATT [XGTACX_site5924]", "gcPBM binding intensity (ln)": 9.38}
{"sequence": "CGAAATCATATGTACACACACATATATATATATATA [CACACA_site2151]", "gcPBM binding intensity (ln)": 9.68}
{"sequence": "TTATAATTTTTTTTTGCATGTGGGTTTTTTTTTGTT [TGCATGCA_site968]", "gcPBM binding intensity (ln)": 9.78}
{"sequence": "TCATCATATTATATATGTACATATATAATAATTTAT [XGTACX_site1625]", "gcPBM binding intensity (ln)": 9.07}
{"sequence": "AAATAATTAAAAAAAAGTACACATGTGACTACATAT [XGTACX_site8767]", "gcPBM binding intensity (ln)": 9.4}
{"sequence": "ATTGTATCTGTATATGCACACAATATCTGTACTTCT [CACACA_site5445]", "gcPBM binding intensity (ln)": 9.7}
{"sequence": "ATATATATTATATGCACACTTATATTTCATTAGATT [CACACA_site2599]", "gcPBM binding intensity (ln)": 9.41}
{"sequence": "ATAAAGAAACATATATGTACTTATATATATATATAT [XGTACX_site5625]", "gcPBM binding intensity (ln)": 9.19}
{"sequence": "TATTCGAAAGAATAGGCATGCAAACATATCTTATTA [TGCATGCA_site147]", "gcPBM binding intensity (ln)": 9.11}
{"sequence": "TTCTATATTATATATGCATGTGTTATTCTTATTTTC [TGCATGCA_site92]", "gcPBM binding intensity (ln)": 9.52}
{"sequence": "AAACATATAAATCACGGTACACATTATTGAAAGTGT [XGTACX_site2966]", "gcPBM binding intensity (ln)": 9.61}
{"sequence": "TCATTCTAAATATAAACACACATAAATAAATACATT [CACACA_site5788]", "gcPBM binding intensity (ln)": 9.6}
{"sequence": "CTTAGGTGTTCATAGAGTACAAATAAAAAAATAAGA [XGTACX_site2294]", "gcPBM binding intensity (ln)": 9.22}
{"sequence": "ATATATATTTTAATAACACACATATATTATATTATA [CACACA_site4387]", "gcPBM binding intensity (ln)": 9.32}
{"sequence": "ACGTTACATACATATACACACACATATATATATATA [CACACA_site8203]", "gcPBM binding intensity (ln)": 10}
{"sequence": "TATATATATTATTATGCATGTAATAAAACAAATAAT [TGCATGCA_site625]", "gcPBM binding intensity (ln)": 9.33}
{"sequence": "GGTGGTGGTGGGTGGGTGCTTCTATTATTATATTAT [GTGCAC_site9391]", "gcPBM binding intensity (ln)": 10.7}
{"sequence": "GATGTTTCTATTTTAGTGCATTTTAAATAAATAAAT", "gcPBM binding intensity (ln)": 9.09}
{"sequence": "ATTTCTTCTTTTTTTGTGAAACTGGAATATATATAT [XGTACX_negctrl_site527]", "gcPBM binding intensity (ln)": 9.16}
{"sequence": "CGGAAAAATTAAAGCACACAAAAAAAAATAAAAAAA [CACACA_site1133]", "gcPBM binding intensity (ln)": 9.62}
{"sequence": "TTTTATTAATATTGCATGCACACTATATAATAATTG [CACACA_site1049]", "gcPBM binding intensity (ln)": 9.38}
{"sequence": "AATATTTCTTTAATTTGTACATATAAGGGAAAATAA [XGTACX_site6221]", "gcPBM binding intensity (ln)": 9.09}
{"sequence": "TTTTTATTATTTTAAAGTACTCTTTAGTAATTCCCT [XGTACX_site5863]", "gcPBM binding intensity (ln)": 9.04}
{"sequence": "AAAAAACATACATACACACACATAAATATTTATATT [CACACA_site7300]", "gcPBM binding intensity (ln)": 10.1}
{"sequence": "CACAGATAAATTAACACACACACACCGATATATATA [CACACA_site6049]", "gcPBM binding intensity (ln)": 10.2}
